SMILES strings stand for the structures. Out of some 46,000 compounds screened, about 60 (0.1%) were called active. Not shown: some 3% with an inconclusive outcome. Calls follow the shape of the dose curve; as a rule, active = well fitted inhibition curve with a large enough effect; inconclusive = small, poorly fitted or top-dose-only effect; inactive = no such curve, though single readings can be large or run the other way. Some of the results follow.

The test can be described thus: Primary qHTS assay for Inhibitors of ovarian cancer metastasis using an organotypic tumor microenvironment (TME) model. Also: nearly all actives have a fitted effect of over 65% in size.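 As to activity change, negative = inhibition: plate controls were DMSO wells for no effect and tomatine positive control wells for full effect.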 To be noted: SKOV3ip1-GFP adhesion/invasion on 3D omental model, fluorescence; series mostly up to 45.8 µM; activity change, negative = inhibition: at the top concentration. The gist of the method:
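Primary human omental fibroblast/mesothelial 3D culture pre-formed 48 h. SKOV3ip1-GFP cells added with compounds (0.36-46 umol/L), incubated 2 h RT/16 h 37 C, fixed; GFP cells quantified at 488/509 nm.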
For the compound `O=C(c1ccc(F)cc1)c1cn(Cc2ccccc2)c2cc3c(cc2c1=O)OCO3`, the “activity change, negative = inhibition” value was inactive: -8.52%.

Regarding `NC[C@H]1O[C@H](O[C@@H]2[C@@H](O)[C@@H](O[C@H]3O[C@H](CO)[C@@H](O)[C@H](N)[C@@H]3O)[C@H](N)C[C@@H]2N)[C@H](O)[C@@H](O)[C@H]1O`, the “activity change, negative = inhibition” value was inactive: 1.32%.

Take `COc1ccc(NC(=O)c2cc3ccccc3o2)c(OC)c1`: the “activity change, negative = inhibition” value is inactive: 0.799%.

For the compound `CCOC(=O)c1c(NC(=O)c2cc(-c3ccc(Br)cc3)on2)sc(C(C)=O)c1C`, the “activity change, negative = inhibition” value is inactive: 4.1%.

Take `CC1CCCN(c2cc3c(cc2F)c(=O)c(S(=O)(=O)c2cccc(Cl)c2)cn3Cc2ccccc2)C1` (stereo not drawn): the “activity change, negative = inhibition” value was inactive: -3.64%.

For `Cc1oc(-c2ccc(C(=O)Nc3ccc(F)cc3)cc2)nc1COc1ccccc1`, the call was inactive.

Take `COc1ccc(C2=CC(c3cc(Br)ccc3F)n3c(nc4ccccc43)N2)cc1` (stereo not drawn): the compound was classed as inactive.

Consider `O=C(Nc1c(C(=O)N2CCN(c3ccccc3F)CC2)oc2ccccc12)c1cccc(F)c1`, for which the “activity change, negative = inhibition” value is inactive: -8.32%.

In the case of `O=C(CCn1c(=O)c2cccn2c2cccnc21)N1CCN(c2cccc(C(F)(F)F)c2)CC1`, the outcome was inactive.

With `CC(C)NC(=O)c1ccc(Cn2c(SCc3ccc(F)cc3)nc3cccnc32)cc1`, the call was inactive.

Turning to `COc1ccc(CCNC(=O)C(=O)NCC(c2ccco2)S(=O)(=O)c2ccc(C)cc2)cc1` (stereo not drawn), the “activity change, negative = inhibition” value is inactive: 6.64%.

Turning to `CCC(C(=O)Nc1cc(C)ccc1C)n1c(=O)c(C(F)(F)F)nc2ccccc21` (stereo not drawn), the “activity change, negative = inhibition” value is inactive: -9.84%.

With `COc1ccc(C(=O)/C=C/c2cn(CC(O)CN3CCc4ccccc43)c3ccccc23)cc1OC` (stereo not drawn), the “activity change, negative = inhibition” value is inactive: 1.25%.

For the compound `Cc1ccc(NC(=O)C2CCCN(S(=O)(=O)c3c(C)n[nH]c3C)C2)c(C)c1` (stereo not drawn), the “activity change, negative = inhibition” value is inactive: 5.14%.

In the case of `COc1ccc(OC)c(/C=C/c2nc3ccccc3c(=O)n2-c2ccc(F)c(Cl)c2)c1`, the “activity change, negative = inhibition” value is inactive: -4.41%.

On to `COCc1nnc(NC(=O)c2cc(OC)c(OC)c(OC)c2)s1`, for which the “activity change, negative = inhibition” value was inactive: 20%.

`COc1cccc(CNS(=O)(=O)c2cnc(N)nc2)c1`: the call was inactive.

As for `COc1ccc(CCNC(=O)c2ccc3c(c2)N(Cc2ccc(F)cc2)C(=O)c2ccccc2S3(=O)=O)cc1OC`, the “activity change, negative = inhibition” value is inactive: 13.4%.

As for `CCOC(=O)c1ccc(NC(=O)Cn2cc(C(=O)C3CC3)c3ccccc32)cc1`, the “activity change, negative = inhibition” value was inactive: -0.444%.

For the compound `C=CCc1cccc2cc(-c3nc4ccc(C)cc4[nH]3)c(=O)oc12`, the result was inactive.

Take `CCc1nn(CC(=O)NCc2ccco2)c(=O)c2cc3c(OC)cccc3n12`: the “activity change, negative = inhibition” value was inactive: -9.83%.

As to `COc1ccccc1CNC(=O)CCc1c(C)c2cc3c(C)c(C)oc3cc2oc1=O`, the “activity change, negative = inhibition” value is inactive: 3.21%.

Consider `Cc1cc(C)n(-c2nc(C)c(C)c(=O)n2CC(=O)Nc2ccc([N+](=O)[O-])cc2)n1`, for which the “activity change, negative = inhibition” value is inactive: 0.224%.

With `COc1cc(OC)cc(C(=O)Nc2ccc(-c3nc4ccccc4s3)cc2C)c1`, the result was inactive.

On to `Nc1nc2c(ncn2COC(CO)CO)c(=O)[nH]1`, for which the “activity change, negative = inhibition” value was inactive: 6.82%.

In the case of `COCC(=O)n1nc(-c2ccco2)nc1NCc1ccccc1Cl`, the “activity change, negative = inhibition” value is inactive: -4.82%.

Consider `CCOC(=O)c1ccc(NC(=O)CCCn2c(=O)c3cccn3c3ccccc32)cc1`, for which the compound was called inactive.

For the compound `Cc1ccc(-n2ncc3c(NCCCN4CCOCC4)ncnc32)cc1C`, the “activity change, negative = inhibition” value was inactive: -1.43%.

For the compound `Cc1c(C(=O)Nc2cccc(C(F)(F)F)c2)sc2nc[nH]c(=O)c12`, the “activity change, negative = inhibition” value is inactive: -5.08%.

Turning to `Cc1ccccc1Nc1c(-c2c(F)cccc2Cl)nc2ccc(Br)cn12`, the “activity change, negative = inhibition” value was inactive: 4.52%.

Consider `COCCNC(=O)C1CCN(Cc2cc3ccccc3n2Cc2ccc(C)cc2)CC1`, for which the “activity change, negative = inhibition” value is inactive: -5.92%.

In the case of `COCCn1c(CNC(=O)c2cccc(C)c2)nc2cccnc21`, the “activity change, negative = inhibition” value was inactive: -4.22%.

For `COc1ccc(NC(=O)c2ccc(NC(=O)N3CCSc4ncccc43)cc2)cc1`, the “activity change, negative = inhibition” value was inactive: -16.1%.

Consider `c1ccc2c(CCNc3ccc(Nc4ccncc4)cc3)c[nH]c2c1`, for which the “activity change, negative = inhibition” value was inactive: -25.9%.

Take `COc1ccccc1NC(=O)C1=C(C)Nc2nc(SCc3ccccc3)nn2C1c1cccc(O)c1` (stereo not drawn): the outcome was inactive.

With `COCCCNC(=O)Cn1c(=O)n(-c2ccc(C)c(C)c2)c(=O)c2c3c(sc21)CCCCC3`, the “activity change, negative = inhibition” value is inactive: 30.8%.

Take `CCCCNC(=O)C(CC)Sc1nc2ccccc2c(=O)n1Cc1ccco1` (stereo not drawn): the compound was called inactive.

Regarding `COc1ccc(OC)c(NS(=O)(=O)c2ccc(-n3cccn3)cc2)c1`, the call was inactive.

As to `O=C(COc1ccc(F)cc1)Nc1nnc(S(=O)(=O)N2CCCC2)s1`, the “activity change, negative = inhibition” value is inactive: -1.6%.

For `COc1ccccc1CNC(=O)c1ccc2[nH]c(C)c(C)c2c1`, the “activity change, negative = inhibition” value is inactive: -0.537%.

For the compound `COc1ccc(NC(=O)c2nnn(Cc3nc(-c4cc(OC)c(OC)c(OC)c4)oc3C)c2C)cc1Cl`, the compound was called inactive.

With `NCCCCCC(=O)O`, the “activity change, negative = inhibition” value is inactive: 8.99%.

As to `Cc1cc(C)n2nc(CNC(=O)c3c(F)cccc3F)nc2n1`, the compound was called inactive.

With `Cc1cccc(N(C)S(=O)(=O)c2nnc(NC(=O)c3cccs3)s2)c1`, the “activity change, negative = inhibition” value is inactive: -3.66%.

Take `CCOC(=O)c1cccc(NC(=O)Cn2c(=O)c3cccn3c3ccccc32)c1`: the “activity change, negative = inhibition” value is inactive: -0.571%.

Turning to `Cc1ccc(C(=O)c2sc(Nc3ccccc3)c(S(=O)(=O)c3ccccc3)c2N)c(C)c1`, the compound was classed as inactive.

In the case of `CCC(C)n1c(=O)c2sccc2n2c(CCCC(=O)NCc3ccccc3Cl)nnc12` (stereo not drawn), the call was inactive.

For `COCCNC(=O)c1sc2ncccc2c1-n1c(C)ccc1C`, the “activity change, negative = inhibition” value is inactive: -10.2%.

Source of the values: PubChem BioAssay AID1963576 (National Center for Advancing Translational Sciences (NCATS), 2024).
